This is one part of the list.

The assay has as its system PfAP2-HC AP2 domain (GST-tagged). As to the kind of experiment: gcPBM binding intensity (ln(normalized median fluorescence intensity)); higher = stronger DNA binding. The procedure, abridged:
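Plasmodium falciparum DNA-binding domains carrying a GST tag were expressed in E. coli and applied for 1 h, at about 25 μg on average, to an Agilent 4 × 180k array. The array held primer-extended double-stranded 36-bp intergenic genomic probes together with negative controls, and binding took place in 1× PBS with 1% milk, 0.2 mg/ml BSA, 0.5% salmon testes DNA and 0.03% Triton X-100. An Alexa488 anti-GST antibody detected bound protein, and the array was scanned at 488 nm. Binding intensity is taken as the highest Masliner-normalised natural-log median intensity across replicate spots of either probe orientation.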
As to “AATATATTTTTCTACCGTACATAATAAAATATATAT [XGTACX_site1777]”, the “gcPBM binding intensity (ln)” value stood at 9.6.
Turning to “TATTTATTTATTTATTGTACATAAGTATATATTATA [XGTACX_site6566]”, the “gcPBM binding intensity (ln)” value amounted to 9.65.
Consider “GAACCACTAAAATGAGCATGCTCATATTTACATATA [TGCATGCA_site1033]”, for which the “gcPBM binding intensity (ln)” value turned out to be 9.7.
Take “AAAAAGTAGTAAAACAGTACAGTATTTATGCCTATT [XGTACX_site6434]”: the “gcPBM binding intensity (ln)” value came to 9.89.
For “AAAAAAAAAAAAAGTACACACTTTTGCGTACATGTA [CACACA_site7449]”, the “gcPBM binding intensity (ln)” value worked out at 9.65.
The result for “CATTATTATGATAGTTGTACAATTTTTATAAAAAAT [XGTACX_site4411]” reads 9.45; that for “ATAAAAATAAAAAGATGTACGTATTTTTTTTTTTTT [XGTACX_site5329]”, 9.59; that for “GAAATAGAGAAACACACACACATATATTTATGTATT [CACACA_site3967]”, 10.4.
For “TATAAATAAATGCGTACACACTAATAAAAAAAAAAA [CACACA_site4630]”, the “gcPBM binding intensity (ln)” value was found to be 9.78.
For “AATATATTTTAATACACACACACATATATATATATA [CACACA_site5969]” the value was 10.4; for “TTTTTTTTAAATATCACACACATATAACATATTCTA [CACACA_site7687]”, 9.82; for “ATATGTATATAAATGTGTACTTATAAATATATATAT [XGTACX_site3250]”, 9.87.
In the case of “TTTTTTTTTTTTGAGTGTACTAAAATATTACCTTTT [XGTACX_site646]”, the “gcPBM binding intensity (ln)” value is 9.49.
The result for “TGGAAAAATAGGCACACACACATATATACCTATATA [CACACA_site4843]” reads 10.2; that for “AATATTATAAATGATACACACTTAAAATACACCCAC [CACACA_site5498]”, 10.3; that for “TGAATATTTACTTTAGCACACAATTTGTATTTGATT [CACACA_site960]”, 9.86.
For “GAATTTATTTTATTTTCACACACAAAAATAAATATC [CACACA_site8762]” the value was 9.79; for “AATAAATAGATATATACACACATATATGTGTACATA [CACACA_site7476]”, 10.1.
For the sequence “TTATCCATTTTAATCACACATACTTTACTTTGGAAC [CACACA_site5584]”, the “gcPBM binding intensity (ln)” value was 9.67.
The result for “TTCTTTAATAAAATAATCTCAAAGAAAATTTTTTCT [GTGCAC_negctrl_site589]” reads 9.03.
The result for “TATAAACATATAAAAAGTACATACCAATTAATATTA [XGTACX_site967]” reads 9.67; that for “GGATAAAATGCTACGAGTACATAAGCATTTTTCCCT [XGTACX_site7796]”, 9.46.
The result for “TCTTTTAAAAATATAAAAAGGAATATATAAAAATGT [CACACA_negctrl_site332]” reads 9.56.
In the case of “AATATATTCATCATATCAATATTGTCAAGCAAACGA [TGCATGCA_negctrl_site37]”, the “gcPBM binding intensity (ln)” value was 9.59.
The result for “TATTCTGTGTATAAAAGTACAAATATTTAAATGTAT [XGTACX_site8234]” reads 9.64; that for “TTGTATATATTAAATTGTACTTATTTTTTGTATATA [XGTACX_site3251]”, 9.63.
The result for “TACAATTTAAAACACACACACAATAATACATATATA [CACACA_site1251]” reads 11.
The result for “TATATTATTTATATTTGTACACAGCGATATGAAATA [XGTACX_site987]” reads 9.51; that for “ATATTATTATAAACTTCACACATTTTATGGGTTTTT [CACACA_site4631]”, 9.71.
Consider “CGCATATTTTATGTTTGTACTCATATGAATATCATA [XGTACX_site4717]”, for which the “gcPBM binding intensity (ln)” value was 9.55.
“CATAAGCACAAGCACAAGCACACATTTATATATATA [CACACA_site882]”: the “gcPBM binding intensity (ln)” value stood at 9.93.
For the sequence “ATAGTAATGCATAAATATATATTATATATATATATA [XGTACX_negctrl_site576]”, the “gcPBM binding intensity (ln)” value is 9.95.
The result for “CTATTGTTAAATATAATACACACGTTTTTAAAAATA [CACACA_site2183]” reads 9.62; that for “GTATATATTTTGTATTCATTTGTCACATATAATAGA [CACACA_negctrl_site506]”, 9.66.
For “CAAACACCCAAACACACACACACATACATACATACA [CACACA_site8044]”, the “gcPBM binding intensity (ln)” value was 10.7.
Consider “TTTTTTTTTTTTTGTGTGCACCTTATTTTTTTGTAT [GTGCAC_site9617]”, for which the “gcPBM binding intensity (ln)” value worked out at 9.97.
Turning to “AAAAAAAAAAAAAATTCACACACATATAAAAAATTA [CACACA_site8140]”, the “gcPBM binding intensity (ln)” value was 10.
“TAAATTAAGAATTTTACACACATTAAATAAAAAAAA [CACACA_site3638]”: the “gcPBM binding intensity (ln)” value amounted to 9.71.
For “TTTTTTTATTTTTTTATAAATGTATTTCTATTATTT [CACACA_negctrl_site1562]” the value was 9.69; for “AAATTAGGAAATTGCACACAAAAAAAAACATATTAT [CACACA_site4074]”, 10.2; for “ATTATATATACATAATGTACATATATATATTACCTT [XGTACX_site7624]”, 9.74.
For “TATAAAATGACTATATATAATATTAAAAAAAAAAAA [TGCATGCA_negctrl_site387]” the value was 9.5.
The result for “AAAATTTCTTTTTTTTGTACATATATAATAATATAT [XGTACX_site7107]” reads 9.64.
Regarding “TTTGAACGAAAATACTCACACATATTTATAAACATT [CACACA_site5182]”, the “gcPBM binding intensity (ln)” value came to 9.69.
The result for “GTATTTTTAAATGACACACACATATATATATATATA [CACACA_site1662]” reads 10.1; that for “ATTTTTCATATATATATATTAATATATATATATTAA [CACACA_negctrl_site1681]”, 9.61; that for “AAAAATATATTATATGTACACACAAAATTAAGGGAT [CACACA_site8384]”, 10.1.
As to “TGAATATTTATACATGCACACTAAAATAAAGAATCT [CACACA_site5351]”, the “gcPBM binding intensity (ln)” value turned out to be 9.79.
For “TATAAATAGGCATATACACACTTTTAATATTCATAA [CACACA_site6123]” the value was 9.66.
On to “TCTTTCTCTCTTCAAAGTACATATAATATATACTTC [XGTACX_site7982]”, for which the “gcPBM binding intensity (ln)” value amounted to 9.65.
For “CAGTTAATGTTGGTACTTTATATAAAAATGATATGA [CACACA_negctrl_site1600]” the value was 9.54.
For “ATAACAACATTTGATAAACACACAGAAGTATAAATA [CACACA_site8739]” the value was 9.88; for “AAAATATAGTTATCAATATATAATATTTTTTTTTTA [CACACA_negctrl_site459]”, 9.38.
For “TTATTAATATTGCATGCACACTATATAATAATTGAA [CACACA_site8258]” the value was 9.63; for “TTTGATATAGAAAGAGCATGCAAGTTAGATAAAATA [TGCATGCA_site470]”, 9.75.
As to “TATATATTAATATACACACACACATATATATATATA [CACACA_site1608]”, the “gcPBM binding intensity (ln)” value is 10.3.
For “AATAAATTATTATGTACACACATAATAGTATATATA [CACACA_site1820]” the value was 9.83; for “AAAACATACCTATATACACACATATAAATATAAATA [CACACA_site6956]”, 10.1.
In the case of “TCATGTTTTACAAAAACACACAAATGAATATAAACA [CACACA_site4775]”, the “gcPBM binding intensity (ln)” value amounted to 9.57.
Turning to “TATATACATAGACACCCACACACAAAAAAAAAAAAA [CACACA_site8186]”, the “gcPBM binding intensity (ln)” value was 10.2.
For “AATAAATAAAAATTATGTACATATATAAAAAATACA [XGTACX_site8581]” the value was 9.82.
For “TCGAATTTGGAAAGAAGTACATGAAGCCAACATATG [XGTACX_site5222]” the value was 9.61; for “TTTCAAACTGTTCTCACACACGAAATTAGAAATGAA [CACACA_site4509]”, 9.74.
For “AAAACAAAATAGGGAACACACACATGTCAATATATA [CACACA_site8834]” the value was 10.5; for “TTTTTTTTTTTTTGGTTCACACTGAAAAGAGAGATA [GTGCAC_negctrl_site439]”, 9.21.
Turning to TTTTGTTATTTTGAAGTGCACTTTCCACTTAATATA, the “gcPBM binding intensity (ln)” value was 9.74.
The result for “CAATCATGGTTTTACACACACATGCATGTGAAAATT [CACACA_site4870]” reads 9.8.
“AAAAGTGATGAGACAAGTACTAACATATTATTATTA [XGTACX_site1533]”: the “gcPBM binding intensity (ln)” value turned out to be 9.75.
The result for “TTTTCTGTATAAACTTGTACATATATTTCCTTGTTT [XGTACX_site5745]” reads 9.8.
For the sequence “AAATATATATGTATATGTACTTATTTATTTAAAAGG [XGTACX_site4093]”, the “gcPBM binding intensity (ln)” value was 9.6.
For “TTTATTATATATAAAAGTACACATTGTAAGGAAACA [XGTACX_site8560]”, the “gcPBM binding intensity (ln)” value amounted to 9.78.
The result for ATACCTATTTGATGAGTGCATTATCCAATATATGTA reads 9.59.
The result for “ATGTTTTACAAAAACACACAAATGAATATAAACATA [CACACA_site6667]” reads 9.72.
The result for “AAATAAAATATCAATTAAAACAGAATTGAATTTTTA [CACACA_negctrl_site181]” reads 9.6; that for “ATATGTTCTACAAAAAAGATGTCGATTTATTTTCTT [CACACA_negctrl_site1179]”, 9.55; that for “ACACATATGCATATATGTACATAATATATTAAACTT [XGTACX_site5975]”, 9.86.
For the sequence “TAAAAAATAAATATATGTACGCAATAAATGTGTTAA [XGTACX_site4043]”, the “gcPBM binding intensity (ln)” value was found to be 9.69.
In the case of “AAAAAAAAAAGACACACACACACACTAATACATACA [CACACA_site6473]”, the “gcPBM binding intensity (ln)” value worked out at 11.4.
The result for “GCAAATGTGAAAACGTGTACACATTTTATTTAATTT [XGTACX_site8000]” reads 9.65; that for “ATAATATATGTATATCCACACACATATATATATATA [CACACA_site8471]”, 10.1.
As to “ATTTAAGATTTAATCACACACATATATATTATATAC [CACACA_site2907]”, the “gcPBM binding intensity (ln)” value is 9.99.
The result for “AAATGTAGATATTATCGTACACATATATTTATATAT [XGTACX_site6326]” reads 9.6; that for “TATTTGTAAATCGATACACACATATATATTAATATA [CACACA_site196]”, 9.71.
In the case of “AAAAAAAAAAAAAAATGTACAAATAGTAGTTACAGA [XGTACX_site2531]”, the “gcPBM binding intensity (ln)” value is 9.69.
With “AACATGTTAAAATAAACACACAGCTAAGGTTTTTTT [CACACA_site157]”, the “gcPBM binding intensity (ln)” value stood at 9.72.
For “TATATAAATATATATGTACACACATATACATGTTGA [CACACA_site9022]” the value was 9.8; for ATAATATCTTTATGTGTGCACATATATATATATATA, 10.2.
For “TTGTTTATTTTTTATTACTATAAAGATGTTATATAT [CACACA_negctrl_site1506]”, the “gcPBM binding intensity (ln)” value is 9.59.

Source of the values: the supplement of paper PMC11417369.
